From PubChem BioAssay AID1346428 (National Center for Advancing Translational Sciences (NCATS), 2018) come the findings set out here.

“And” between values parts separate entries of the source, which are not always exact repeats. Equal values may be shown once. The campaign covered roughly 48,000 compounds. About 1,200 (2.5%) were called active. Inconclusive results (about 2%) are left out.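 How the source made its calls: active means activation of at least 60% and not above a set upper limit (about 1 call in 100 departs from these limits); inconclusive means activation of 40% to 60%, or above that upper limit; inactive means activation under 40%.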 This is one part of the list.

Sequence of UniProt O75388 (O75388 whole entry, looked up): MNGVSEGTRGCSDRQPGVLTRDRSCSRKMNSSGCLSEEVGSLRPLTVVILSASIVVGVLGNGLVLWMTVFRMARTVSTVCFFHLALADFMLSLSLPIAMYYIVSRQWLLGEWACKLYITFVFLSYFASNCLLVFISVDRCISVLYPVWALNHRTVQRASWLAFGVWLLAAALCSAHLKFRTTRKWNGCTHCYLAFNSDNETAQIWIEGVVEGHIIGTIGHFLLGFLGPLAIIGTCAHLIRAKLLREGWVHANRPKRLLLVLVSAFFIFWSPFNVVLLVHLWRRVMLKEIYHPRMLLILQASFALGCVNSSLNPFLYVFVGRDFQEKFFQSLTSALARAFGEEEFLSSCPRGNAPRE

This assay has as its target Probable G-protein coupled receptor 32 (Homo sapiens) (UniProt O75388). The assay is described as follows: qHTS for Agonists of Human Resolvin D1 Receptor DRV1. Further: 0% is about no effect. The note with it: CHO-K1 GPR32 beta-arrestin PathHunter luminescence, 90 min; at 76.9 µM; active compounds read high; zero percent set by DMSO-only wells. In short, it runs like this:
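PathHunter beta-arrestin recruitment in CHO-K1 cells stably expressing ProLink-tagged GPR32. Cells were exposed to compound for 90 min at 37 C, then chemiluminescence was read after 1 h detection at ambient temperature; DMSO served as basal control.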
For `COc1ccc(N(C(=O)c2cccc(C)c2)S(=O)(=O)c2ccc3c(c2)n(C)c(=O)n3C)cc1`, the activation is inactive: -18.9%.
To `CCOC(=O)c1cc(OC(=O)c2ccccc2OC)n(-c2ccccc2)n1` belongs inactive: -5.1%; to `O=C(Cn1c(=O)n(-c2ccccc2)c(=O)c2ccc(C(=O)NCc3ccc4c(c3)OCO4)cc21)Nc1ccc(F)c(Cl)c1`, inactive: -0.211%.
In the case of `CN(CCCNC(=O)c1cc2c(=O)n(C)c3ccccc3c2s1)Cc1ccccc1`, the activation is inactive: 12.2%.
To `Cc1ccc(NC(=O)Nc2cccs2)c(C)c1` belongs inactive: -16.5%; to `CCN1C(=O)c2ccccc2Sc2ccc(NC(=O)c3cccc(C)c3)cc21`, inactive: -1.34%; to `CC(C)NC[C@H](O)COc1ccc(CC(N)=O)cc1`, inactive: 17.9%.
Take `COc1ccc(CCNC(=O)c2ccc3c(c2)N(Cc2cccc(Cl)c2)C(=O)c2ccccc2S3=O)cc1OC` (stereo not drawn): the activation is inactive: -23.1%.
For `Cc1cccc(CC(=O)NCCc2sc3nc(-c4ccc(F)cc4)nn3c2C)c1` the value was inactive: -15.3%.
As to `COc1ccc(OCC(=O)N(Cc2ccc(C)o2)C2CCS(=O)(=O)C2)cc1` (stereo not drawn), the activation is inactive: -22.7%.
Consider `CCOc1ccc(CCNC(=O)c2ccc(-c3nc(CSc4ccccc4)c(C)o3)cc2)cc1`, for which the activation was inactive: 11.4%.
For `CCC(C)NC(=O)CSCc1nc(-c2ccc(C)cc2)oc1C` (stereo not drawn) the value was inactive: -3.02%; for `O=C(c1ccccc1Br)N(Cc1ccccc1F)C1CCS(=O)(=O)C1` (stereo not drawn), inactive: -8.32%.
For `CN1CCN(C(=O)c2ccc3c(c2)N(Cc2ccc(Cl)cc2)C(=O)c2ccccc2S3(=O)=O)CC1` the value was inactive: 0.0217%; for `CCc1ccc(N(CC)C(=O)c2sc3nc4n(c(=O)c3c2C)CCCC4)cc1`, inactive: -14.2%.
Take `COc1ccccc1NC(=O)CN1C(=O)CCSc2ccccc21`: the activation was inactive: -6.85%.
To `Cn1nnnc1SCCCNCc1ccccc1OCc1ccc(F)cc1` belongs inactive: 0.957%; to `Cc1cccc(NS(=O)(=O)c2ccc3c(c2)CCN3C(=O)C2CC2)c1C`, inactive: 32%; to `O=C(Cn1c(=O)ccc2cc(S(=O)(=O)N3CCCC3)ccc21)Nc1ccc(Cl)cc1`, inactive: -2.95%.
With `Cc1ccc(Cl)cc1NC(=O)CSCc1cnn(-c2ccccc2)c1-n1cccc1`, the activation was inactive: -24.5%.
Consider `CC(=O)c1cccc(NC(=O)CCCSc2nc(-c3ccco3)cc(C(F)(F)F)n2)c1`, for which the activation was inactive: -8.23%.
For `CCOC(=O)C1CCCN(C(=O)c2ccc3c(c2)N(Cc2ccccc2F)C(=O)c2ccccc2S3=O)C1` (stereo not drawn) the value was inactive: -13.3%.
For `COc1ccc(CCNC(=O)CCn2c(=O)c3ccccc3n(CC(=O)Nc3cc(Cl)ccc3C)c2=O)cc1OC` the value was inactive: 9.66%.
For `c1cnc2c(c1)ccc1cccnc12` the value was inactive: -2.08%; for `COc1ccc2c(c1)c(=O)c(S(=O)(=O)c1ccccc1)cn2CC(=O)Nc1ccc2c(c1)OCO2`, inactive: 15.1%.
As to `CCCN(C(=O)Cn1ncc2c([nH]c3ccccc32)c1=O)c1ccc(F)cc1`, the activation was inactive: -14.2%.
For `CCc1ccccc1NC(=O)Nc1cc(C(=O)NCc2ccccc2OC)ccc1N1CCCC1` the value was inactive: -16.1%; for `COc1ccc(NC(=O)CN2C(=O)C(c3ccc(C)cc3)=NC23CCCCCC3)cc1Cl`, inactive: 10.9%; for `CCOC(=O)C(C)(C)Oc1ccc(Cl)cc1`, inactive: -1.06% and inactive: 8.3%.
Take `CN(C)CCNC(=O)C(=O)NCC(c1cccnc1)N1CCN(c2ccccc2)CC1` (stereo not drawn): the activation is inactive: 2.97%.
In the case of `COc1cccc(-c2nc(SCC(=O)NCC3CCCO3)c(-c3ccc(Cl)cc3)[nH]2)c1` (stereo not drawn), the activation is inactive: -10.9%.
For `Cc1ccc(NC(=O)c2ccc(CNS(=O)(=O)c3ccc4c(c3)C(C)(C)C(=O)N4C)cc2)cc1` the value was inactive: 5.77%; for `COc1ccc(N2CCN(C(=O)Cn3c(-c4cccs4)cc4ccccc43)CC2)cc1`, inactive: -26.8%.
To `Cc1ccc(C)c(Cn2c(=O)n(-c3ccc(F)cc3)c(=O)c3sc4ccccc4c32)c1` belongs inactive: 14.2%; to `O=C(CSc1nc2ccsc2c(=O)n1Cc1ccccc1F)NCc1ccccc1Cl`, inactive: -29.2%.
To `CC(=O)N1CCc2cc(S(=O)(=O)NC(Cc3ccccc3)C(=O)Nc3ccc(C)cc3C)ccc21` (stereo not drawn) belongs inactive: -2.67%; to `Cc1ccc(C(=O)Nc2ccc3oc(-c4cc(Br)ccc4Cl)nc3c2)cc1`, inactive: 17.5%.
On to `CCC(=O)N1CCCc2cc(S(=O)(=O)N3CCC(C(=O)Nc4cccc(Cl)c4)CC3)ccc21`, for which the activation is inactive: -6.63%.
To `O=C(Nc1cccc(Cl)c1Cl)c1cc(S(=O)(=O)N2CCCc3ccccc32)ccc1F` belongs inactive: -8.15%; to `COc1cc(OC)c(N(C)C(=O)CSc2c3c(nc4ccc(Cl)cc24)CCCC3)cc1Cl`, inactive: -34.9%.
`CCc1ccc(NC(=O)CC2C(=O)N(c3ccc(OC)cc3)C(=O)N2Cc2cccs2)cc1` (stereo not drawn): the activation is inactive: -19.7%.
In the case of `CCOC(=O)c1cnc2c(C)cc(C)cc2c1Nc1ccccc1OCC`, the activation is inactive: -5.86%.
Consider `Cc1nn2c(-c3ccco3)ccnc2c1-c1ccc(Cl)cc1`, for which the activation was inactive: -10.2%.
As to `O=c1cc2nc(-c3ccccc3)nc(SCCOc3ccc(Cl)cc3)n2[nH]1`, the activation is inactive: 9.42%.
To `CN1CCc2cccc3c2[C@H]1Cc1ccc(O)c(O)c1-3` belongs inactive: -13.9%; to `CCCNC(=O)Cn1nc(-c2ccc(C)c(C)c2)c2cnc3ccc(OC)cc3c21`, inactive: -3.87%; to `COc1ccccc1-c1nc2c(c(SCc3cc(C)ccc3C)n1)Cc1c(CO)cnc(C)c1O2`, inactive: 2.42%.
To `Cc1ccc(CNC(=O)c2cc3c(=O)oc4ccc(C)cc4c3s2)cc1` belongs inactive: -7.67%.
To `COc1ccc(N(CC(=O)N2CCN(c3ccccc3F)CC2)S(=O)(=O)c2c(C)noc2C)cc1` belongs inactive: -9.14%.
In the case of `COc1ccc2oc(=O)c(C(=O)NCCc3c(C)[nH]c4ccc(C)cc34)cc2c1`, the activation is inactive: -0.74%.
Regarding `COc1ccccc1NC(=O)Cn1cnc2ccc(S(=O)(=O)N3CCC(C)CC3)cc2c1=O`, the activation is inactive: 14.7%.
For `COCCCN1C(=O)c2[nH]nc(-c3cc(C)ccc3O)c2C1c1ccc(F)cc1` (stereo not drawn) the value was inactive: -19%; for `COc1ccc(CNC(=O)c2cc3sccc3n2Cc2ccc(F)cc2)cc1`, inactive: 19.9%.
